Measured values published in the supplement of paper PMC3334620.
Whole data set: some 33,000 sequences, median “E-score (-0.5 to 0.5)” near -0.056, cut for the highest 2% near 0.38. The list shows a part of the results.

Molecular target: Stb4 (UniProt P50104)
Test: PBM E-score (8-mer binding enrichment) (E-score (-0.5 to 0.5)); higher = stronger / more preferred TF binding; most listed sequences are background and not binding sites
Details: protein concentration: 200 nM; construct: GST-DNA-binding domain
In short: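 For each ungapped eight-base word taken together with its reverse complement, the Universal PBM Analysis Suite assigned an E-score. Binding data came from GST-tagged yeast transcription factors, applied at about 100-200 nM, on universal all-10-mer Agilent arrays made double-stranded by primer extension. Fluorescent anti-GST marked bound protein, and scans were normalised with masliner.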

Sequence | PBM E-score
ATGCATGA | -0.0846
CTAGACTC | -0.137
AAGTCTCC | -0.103
CATGAGCA | -0.165
CAATTGTG | -0.0461
ATACCGTC | 0.0633
TGCGTGAA | 0.0669
CGAAACAG | 0.0698
AAGGGGTA | -0.161
AACACCGA | 0.232
AGGTGCAT | -0.0401
CAGCTGTC | -0.201
GCTACCAC | -0.225
AACTCTCC | 0.0711
AGACATGC | -0.00611
CATATGTA | -0.267
CTGTCCTC | -0.15
GACGTAGC | 0.00068
ACGCTACG | -0.0278
GTCAGGTA | -0.0721
ATAGAGCA | -0.228
CGTAAACA | 0.055
GTATGTGA | -0.0657
CTTCATTA | -0.247
GGACCAAC | 0.0837

Sequence | PBM E-score
TAGCTTCA | -0.337
CGACATGA | 0.0408
AGCTGACG | -0.231
ATATTCTA | 0.0111
TAGTGATA | -0.313
CTACTTCC | 0.202
AAATGGGC | -0.125
CGAGGTAC | 0.155
GTGCATTA | -0.128
GCAGCCTA | -0.153
TGTATACA | -0.1
CGAATCCA | 0.121
ATTTAAGC | -0.038
ACACCCAG | -0.196
TCCCTTCA | -0.306
AACATCGG | 0.29
AATAAGGG | -0.211
CTATCCAA | -0.268
GGCACCTA | 0.146
AGCATCTA | -0.0852
CACATCGG | 0.309
AAACATTG | -0.11
AGTCGAGC | -0.223
AGTAATTC | 0.133
AGAGAATA | -0.0783

Sequence | PBM E-score
CATTAGCG | -0.128
AGCGCATG | -0.226
AGAGATGA | -0.0223
AGCAGAAA | -0.087
ATGCTCAG | -0.115
GTTCATGA | 0.0541
CTCAATAC | 0.033
ATGAAGCA | -0.267
ACTTTGAC | -0.17
ACTAGAAA | -0.0015
AACCCAAC | -0.0126
GATTCCTA | 0.0036
TAGTCCCA | -0.219
AAACGAAC | -0.0827
CGCTACCA | 0.0369
GGAGATGA | -0.0948
TACGAGCA | -0.0169
GGTGATGA | -0.0768
CAACACCA | -0.243
CATCAACC | 0.00345
CATTTTGC | -0.0275
GGTCAACA | 0.0781
AGGGATAC | -0.198
AACCAGCG | 0.00653
GTTGCTGA | -0.162

Sequence | PBM E-score
CCTTTTCC | 0.0594
ACAAACAC | 0.0656
AAGACCGA | 0.238
AGCGCTAT | 0.0189
GCAGTTCA | -0.154
CGTTCTGA | -0.199
CCGGGTTA | 0.345
AGAACTCG | 0.0715
CAGGTTTC | 0.0331
AGTCACGA | -0.147
CCGGAGGC | 0.204
CTCTCACA | -0.274
CGTTACTA | -0.124
CTGTGAGA | -0.151
AAGCGCTC | -0.137
GTGTGCCA | -0.157
ATTATCCG | 0.475
AAGTCAAT | 0.012
ATTCCTAC | -0.0871
AGTATTTG | -0.218
GATGACGC | -0.108
AGAGCAAC | -0.287
GAAAGACA | 0.00775
CGCATGGC | 0.0142
CGGCAATC | 0.331

Sequence | PBM E-score
CTCATTCC | 0.253
ACATACCA | -0.0731
GGTCGGGA | 0.368
CCGGATCG | 0.413
ACGTAACT | -0.204
ATTGCGGG | 0.188
AACGTTAT | -0.00129
GTCTTGTA | -0.167
ATCTGGCC | -0.0094
ATACCGCC | 0.18
TAATTGCA | -0.0136
GTCTAGAC | -0.342
CCTCCCAC | -0.0773
TAATGGTA | -0.0303
TAGTAACA | -0.0586
AAATTGTA | -0.101
GCAGCTTA | -0.193
CCCCAAGA | -0.234
ACGAGTTA | -0.0115
ATTGTATG | -0.0615
AATGCCTC | -0.0527
CAGCCGTC | 0.129
CGCTATTC | 0.0269
TCAAACGA | 0.0128
GACATATA | 0.0246

Sequence | PBM E-score
TACTGCGA | -0.199
CACGGACA | 0.0424
AGGCCCCT | -0.212
CATTTTAC | 0.0779
ATTCATTC | 0.172
AGACATCC | 0.123
AGCCATAA | -0.159
GAGACTTA | -0.0893
CTCCATGA | -0.166
AAGCGTAA | 0.0981
GTAAGTAC | 0.00926
CTTATGCA | -0.211
ACCAAATC | -0.108
AGATTACC | 0.199
AGGTTCTC | 0.00395
CTTCGGCA | 0.443
GCCTGCTA | -0.208
CCACCCAC | 0.00917
AGTGAGGC | -0.0956
AGCACGAA | -0.0715
ATCAATTG | -0.141
GCCACCCA | -0.121
ACCTCGCG | -0.0698
CTCTTTGA | -0.285
ATGAAGGA | -0.158

Sequence | PBM E-score
ACGTGCAG | -0.147
GTTATGAA | 0.0167
CAATTGAA | -0.174
CCGTTGCA | 0.0311
CGCTGAAG | -0.0361
ACCTACCG | 0.0744
GAGTCATC | 0.0353
AACTCCTT | -0.0527
CTGGATGC | -0.153
TAAGCCGA | 0.392
AAGTGAGC | -0.178
CCCACACA | -0.27
ACGACCTG | -0.286
GGGGATGA | -0.0342
GTAAGCTA | -0.105
ACTTCTGA | -0.216
CAAACAAC | 0.0106
ATAAACCC | 0.0851
ACTACCTC | -0.00512
CCTGATGA | -0.184
GACAACGC | -0.106
AAGAATCG | 0.197
